{"source": "ChEMBL document CHEMBL4888484", "about": "“Replenishing the malaria drug discovery pipeline: Screening and hit evaluation of the MMV Hit Generation Library 1 (HGL1) against asexual blood stage Plasmodium falciparum ,using a nano luciferase reporter read-out” (2022)", "note": "In all, about 150,000 compounds went through this assay and about 540 (0.36%) showed an effect of 50% or more. This is one part of the list."}
{"test_system": "Plasmodium falciparum", "experiment": "Primary screen in NF54 nanoGlo assay, in single point, at 2uM, 72h; a lower Z score goes with more inhibition", "assay_type": "functional, Erythrocyte", "settings": "timepoint 72 hour", "units": {"% Inhibition": "%"}}
{"smiles": "O=C1C[C@H](NC(=O)CCC(=O)c2ccc(Cl)cc2)CN1", "% Inhibition": 1, "Z score": -0.17}
{"smiles": "O=C(c1ccc(Cl)s1)N1CC(n2nccn2)C1", "% Inhibition": -8, "Z score": 1.59}
{"smiles": "COc1ccc(-n2ccnc2-c2cn(C3CCNCC3)nn2)c(C)c1", "% Inhibition": 4, "Z score": -0.77}
{"smiles": "Cc1cc(-c2nc(C3CC3)n[nH]2)cc2sc(N)nc12", "% Inhibition": -14, "Z score": 2.62}
{"smiles": "O=C(Cc1cc(C2CC2)no1)N[C@@H]1c2ccccc2CC[C@@H]1O", "% Inhibition": -11, "Z score": 1.69}
{"smiles": "Cc1cnc(NC(=O)c2cccc3ccccc23)s1", "% Inhibition": -12, "Z score": 2.18}
{"smiles": "Cc1ccccc1-c1nnc(/C=C/c2ccccc2)o1", "% Inhibition": -7, "Z score": 0.92}
{"smiles": "Cc1cccc(N2CCN3C(=O)C(=O)NC[C@H]3C2)n1", "% Inhibition": -12, "Z score": 1.61}
{"smiles": "NC(=O)CN(CCC1CCCCC1)Cc1nnc(-c2cccc(Br)c2)o1", "% Inhibition": -8, "Z score": 0.78}
{"smiles": "CCc1nc(-c2ccc(C)c(S(=O)(=O)N3CCC(C(=O)N[C@@H](C)CC)CC3)c2)no1", "% Inhibition": -11, "Z score": 1.39}
{"smiles": "O=C(C[C@H]1Cn2ncc(-c3ccccc3)c2NC1=O)NC1CCCC1", "% Inhibition": -10, "Z score": 0.88}
{"smiles": "C[C@H]1CN(C)c2ccccc2CN1C(=O)NCC1CS(=O)(=O)c2ccccc21", "note": "(some centres not stated)", "% Inhibition": -16, "Z score": 2.1}
{"smiles": "C[C@@H](Cc1ccco1)NC(=O)NC1CCCC1", "% Inhibition": -3, "Z score": 0.25}
{"smiles": "Cc1ccc2c(c1)c(C)c1n2C[C@H]2CO[C@]1(C)O2", "% Inhibition": -13, "Z score": 1.68}
{"smiles": "CC[C@H](NS(=O)(=O)N1CCOCC1)c1nc(C)c[nH]1", "% Inhibition": -5, "Z score": 0.92}
{"smiles": "CCNc1nc(N)c(C(=O)Nc2cc(C)no2)s1", "% Inhibition": -8, "Z score": 1.06}
{"smiles": "COc1cc(C(=O)N2CCN(C(=O)N3CCCC3)CC2)cc(OC)c1Br", "% Inhibition": 19, "Z score": -2.38}
{"smiles": "C[C@H](NC(=O)CC1CCCCC1)C(=O)Nc1ncccc1Cl", "% Inhibition": -2, "Z score": 0.3}
{"smiles": "Cn1c(CN2CCOC[C@@]23CCOC3)nnc1C1CC1", "% Inhibition": 31, "Z score": -1.4}
{"smiles": "CN(C)C(=O)CN(C)S(=O)(=O)CC1CCCCC1", "% Inhibition": 1, "Z score": -0.14}
{"smiles": "Cc1cccc(S(=O)(=O)Nc2[nH]nc(Nc3ccc(F)c(C)c3)c2C#N)c1", "% Inhibition": -6, "Z score": 0.83}
{"smiles": "CC1(C)CC(=O)N(Cc2cncn2Cc2ccccc2)C1", "% Inhibition": -8, "Z score": 0.99}
{"smiles": "C[C@]1(Cc2nnn[nH]2)CC1(Cl)Cl", "% Inhibition": -5, "Z score": 0.62}
{"smiles": "CC(C)C(=O)N1CCN(c2nc3ccccc3c3nnc(-c4ccccc4F)n23)CC1", "% Inhibition": 8, "Z score": -0.91}
{"smiles": "Fc1ccc(C2CCC(N[C@H](c3ccc(F)cc3)c3ncc[nH]3)CC2)cc1", "note": "(some centres not stated)", "% Inhibition": 18, "Z score": -3.43}
{"smiles": "Cc1cnc(C(=O)N2CCC[C@H](n3c(C)cnc3-c3ccccc3)C2)cn1", "% Inhibition": 3, "Z score": -0.39}
{"smiles": "Cc1nc(C2CC2)ccc1C(=O)N(C)[C@H]1CCN(C(C)C)C1", "% Inhibition": -8, "Z score": 1.07}
{"smiles": "Cc1ccc(OCCOCn2c(C)cc(=O)[nH]c2=O)cc1", "% Inhibition": -35, "Z score": 4.06}
{"smiles": "Cc1noc(C)c1N(C)C(=O)Nc1cccc(COC(C)C)c1C", "% Inhibition": -2, "Z score": 0.22}
{"smiles": "Cc1nn(C)cc1C(=O)NCCC(c1ccccc1)c1ccccc1", "% Inhibition": -5, "Z score": 1.02}
{"smiles": "Cc1cc(C)c(S(=O)(=O)Nc2ccccc2CCc2nc3ccccc3n2C)cc1C", "% Inhibition": -21, "Z score": 2.5}
{"smiles": "CC(C)(C)C1OCCCC1CNc1nccnc1C#N", "note": "(configuration not stated)", "% Inhibition": 3, "Z score": -0.52}
{"smiles": "C[C@H](O)Cc1cn(C2CCN(C(=O)c3ccc4sccc4c3)CC2)nn1", "% Inhibition": -10, "Z score": 1.37}
{"smiles": "Cc1cc(C(=O)N[C@@H](C)C(C)(F)F)on1", "% Inhibition": 2, "Z score": -0.2}
{"smiles": "CCn1ccnc1CNC(=O)c1ccc(S(=O)(=O)NC[C@@H](C)O)cc1", "% Inhibition": -18, "Z score": 2.11}
{"smiles": "CCc1cccnc1-c1noc(C[C@H]2CNCCS2(=O)=O)n1", "% Inhibition": -14, "Z score": 2.75}
{"smiles": "Cc1cc(C)n(-c2ccc(C(=O)N3CCC[C@H](c4[nH]ncc4-c4cccc(F)c4)C3)cc2)n1", "% Inhibition": -13, "Z score": 1.71}
{"smiles": "O=C(Nc1ccc2c(c1)OCCCO2)c1cccc2ccccc12", "% Inhibition": -16, "Z score": 2.44}
{"smiles": "COc1ccc(Cc2n[nH]c(C[C@H]3CCCOC3)n2)cc1OC", "% Inhibition": 7, "Z score": -1.41}
{"smiles": "Cc1nnnn1CCC(=O)NC(Cc1ccncc1)[C@H]1C[C@@H](O)C1", "note": "(some centres not stated)", "% Inhibition": -13, "Z score": 1.49}
{"smiles": "CCc1cc(=O)n(Cc2cccnc2)c(N2CCOCC2)n1", "% Inhibition": -1, "Z score": 0.11}
{"smiles": "CCOc1ccc(OCc2n[nH]c(CN3CCCC3=O)n2)cc1", "% Inhibition": -4, "Z score": 0.85}
{"smiles": "COc1ccc(S(=O)(=O)N2CC[C@H](S(=O)(=O)Cc3ccco3)C2)cc1Cl", "% Inhibition": 1, "Z score": -0.16}
{"smiles": "O=C(NCCC1=CCCCCC1)N1CC(S(=O)(=O)N2CCNCC2)C1", "% Inhibition": 2, "Z score": -0.25}
{"smiles": "CC(C)CC1OCCCC1NC(=O)C1CCCO1", "note": "(configuration not stated)", "% Inhibition": -16, "Z score": 1.41}
{"smiles": "CC(NCC(C)(O)c1cnn(C)c1)c1ccc(N2CCCC2=O)cc1", "note": "(configuration not stated)", "% Inhibition": -9, "Z score": 0.87}
{"smiles": "O=C(Nc1cccn2c(C3CCC3)nnc12)c1ccc2c(c1)OCO2", "% Inhibition": -1, "Z score": 0.11}
{"smiles": "COc1cc(OC)c(NC(=O)CC(C)=O)cc1Cl", "% Inhibition": 7, "Z score": -1.36}
{"smiles": "CNc1ccccc1-c1nc2cc3ccccc3cc2n(C)c1=O", "% Inhibition": 2, "Z score": -0.42}
{"smiles": "Cc1cnc(C2CCN(C(=O)CCS(=O)(=O)c3ccccc3)CC2)n1[C@H](C)CO", "% Inhibition": -7, "Z score": 1.2}
{"smiles": "COCCn1cncc1Cn1ccnc1-c1ccc2nonc2c1", "% Inhibition": -9, "Z score": 1.88}
{"smiles": "CC(=O)c1csc(NC(=O)c2ccc3ncsc3c2)n1", "% Inhibition": -6, "Z score": 0.88}
{"smiles": "O=C(O)c1nccnc1NCCCC1CCCC1", "% Inhibition": -1, "Z score": 0.15}
{"smiles": "CCCc1nnc2sc(-c3ncccc3OC)nn12", "% Inhibition": 4, "Z score": -0.66}
{"smiles": "CCC(C)(C)C(=O)Nc1ccc(Br)cc1F", "% Inhibition": -10, "Z score": 1.99}
{"smiles": "O=C(Nc1ccn(-c2ccccc2)n1)N[C@@H](CCO)c1cccs1", "% Inhibition": -9, "Z score": 1.62}
{"smiles": "Cc1ncsc1C(=O)N1CCC(n2cc(-c3ccccc3)nn2)CC1", "% Inhibition": -9, "Z score": 1.39}
{"smiles": "O=C(c1ccnn1CCO)N1CCCCCCC1", "% Inhibition": -11, "Z score": 1.11}
{"smiles": "COC[C@@H]1CCC[C@@H]1NS(=O)(=O)c1cccc(C(=O)NC2CCC2)c1", "% Inhibition": -7, "Z score": 1.38}
{"smiles": "CCS(=O)(=O)N(CCN1CCCCC1)C1CN(C(=O)c2ccc(Cl)cc2OC)C1", "% Inhibition": -6, "Z score": 0.82}
{"smiles": "CC(C)(C)N1C(=O)CC(NC(N)=O)C1c1ccc(Cl)c(F)c1", "note": "(configuration not stated)", "% Inhibition": -5, "Z score": 0.53}
{"smiles": "CCOCCC1(CNC(=O)C2(CNC(=O)OC(C)(C)C)CCCC2)CCCC1", "% Inhibition": -7, "Z score": 0.65}
{"smiles": "O=C(Cc1cccc(O)c1)NC1CCN(C2CCS(=O)(=O)CC2)CC1", "% Inhibition": -17, "Z score": 1.8}
{"smiles": "COc1ccc(Br)cc1CCC(=O)N1CC[C@H](N2CCc3ccccc3C2)C1", "% Inhibition": 2, "Z score": -0.33}
{"smiles": "CCC(CC)C(=O)N1CCN(C(=O)c2ccon2)[C@H]2CS(=O)(=O)C[C@H]21", "% Inhibition": -6, "Z score": 1.02}
{"smiles": "CC1CN(CC(O)COc2ccccc2-c2ccccc2)CC(C)O1", "note": "(configuration not stated)", "% Inhibition": -19, "Z score": 2.24}
{"smiles": "CC(C)NC(=O)O[C@@H]1CC[C@]2(C)C(CC[C@@H](O)[C@H]2CC(=O)NCc2ccco2)[C@]1(C)CO", "note": "(some centres not stated)", "% Inhibition": -11, "Z score": 1.38}
{"smiles": "C[C@@H](NC(=O)c1ccc2c(c1)OCO2)c1onc(-c2ccc(Cl)cc2)c1C(=O)O", "% Inhibition": 6, "Z score": -0.72}
{"smiles": "COC(=O)c1coc(CN[C@H]2CC(=O)N(c3ccccc3)C2)n1", "% Inhibition": -9, "Z score": 1.23}
{"smiles": "CCn1cnnc1CCNc1cc(C)c2cc(OC)c(OC)cc2n1", "% Inhibition": -9, "Z score": 1.31}
{"smiles": "COc1ccc(C(=O)N2Cc3cc(C(=O)N4CCCC4)ccc3OC[C@@H]2C)cc1F", "% Inhibition": -13, "Z score": 1.16}
{"smiles": "Cc1noc(C)c1C(=O)Nc1ccc2oc(-c3cc(F)ccc3Br)nc2c1", "% Inhibition": -6, "Z score": 1.1}
{"smiles": "Cc1ccccc1-c1nocc1CCC(=O)O", "% Inhibition": -24, "Z score": 2.16}
{"smiles": "O=C(Cc1ccoc1)Nc1cccc(S(=O)(=O)N2CCCCC2)c1", "% Inhibition": 2, "Z score": -0.3}
{"smiles": "COc1ccc([C@H](CC(=O)O)NC(=O)c2ccn(-c3cc(C)ccc3OC)n2)cc1OC", "% Inhibition": -1, "Z score": 0.05}
{"smiles": "Cc1ccc(NC(=O)CN2CCOC3(CCCC3)C2)cc1", "% Inhibition": -7, "Z score": 1.14}
{"smiles": "Cc1noc(C)c1C(=O)N1CC(Oc2cccnc2)C1", "% Inhibition": -7, "Z score": 1.25}
{"smiles": "CCN(CC)Cc1cccc(CNC(=O)c2cc(-c3csc(C)n3)c[nH]2)c1", "% Inhibition": -2, "Z score": 0.23}
{"smiles": "CCN(Cc1ccccc1)C(=O)c1ccc2c(c1)C(=O)N(C[C@H]1CCCO1)C2=O", "% Inhibition": 1, "Z score": -0.15}
{"smiles": "COc1cccc(Cn2nc(C)c(CNCCc3ccc(Cl)cc3)c2Cl)c1", "% Inhibition": -5, "Z score": 0.68}
{"smiles": "Cc1cn(C)nc1C(=O)N1CC[C@@](F)(c2cc(F)cc(F)c2)C1", "% Inhibition": -10, "Z score": 1.35}
{"smiles": "CCN(CC(C)C(=O)O)C(=O)C1CC1C1CC1", "note": "(configuration not stated)", "% Inhibition": -18, "Z score": 2.63}
{"smiles": "Cc1nc(CNC(=O)c2cc(Br)co2)ccc1[C@H](C)O", "% Inhibition": 15, "Z score": -1.92}
{"smiles": "CCNc1cccnc1C(=O)NCCCN(CC)S(C)(=O)=O", "% Inhibition": -5, "Z score": 0.53}
{"smiles": "O=S1(=O)CCN(S(=O)(=O)c2ccsc2)[C@H](C2CC2)C1", "% Inhibition": -14, "Z score": 2.67}
{"smiles": "O=C(c1cnn2ccncc12)N1CC=C(c2c(F)cccc2F)CC1", "% Inhibition": -11, "Z score": 1.58}
